Laboratory results taken from PubChem BioAssay AID686978 (National Center for Advancing Translational Sciences (NCATS), 2013).
“And” between values parts separate entries of the source, which are not always exact repeats. Equal values may be shown once. The whole screen tested about 420,000 compounds, of which about 64,000 (15%) were called active. Inconclusive results, whose numbers are uncertain, are shown with a selection of clear calls. Calls follow the shape of the dose curve; as a rule, active = well fitted inhibition curve with a large enough effect; inconclusive = small, poorly fitted or top-dose-only effect; inactive = flat fitted curve, though single readings scatter. Where the call is inconclusive, the potency comes from a doubtful curve fit.
% is scaled to controls: 0 for no effect and ±100 for the full control effect; potency is read from the fitted curve at half-maximal effect; tags tell the direction and shape of the fitted curve.

Test: qHTS for Inhibitors of human tyrosyl-DNA phosphodiesterase 1 (TDP1): qHTS in cells in absence of CPT; also: nearly all actives have a fitted effect of over 55% in size
Details: DT40 Tdp1-/- hTDP1 cells, no CPT, ATP luminescence, 48 h; activity change, negative = growth inhibition: at 46.2 µM (top of the series)
How it was run: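 Camptothecin absent (DMSO only). Human TDP1-complemented DT40 knockout cells, 400 cells/well, 37 °C for minimum 48 hr; ATP measured via CellTiter-Glo, 30 min dark incubation, luminescence.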
With `COc1ccc(-c2cn(-c3ccc(Cl)cc3)c3[n+]2CCCCC3)cc1` the Potency was active: 2.59 µM. With `COc1ccccc1Cc1c(-c2ccc(Cl)cc2)nc2ccc(Br)cn12` the Potency was inconclusive: 18.4 µM [inhibitor, single point]. In the case of `O=C(C[C@@H]1C/C=C/CC[C@H](Cc2ccc(F)cc2)C(=O)O[C@H](c2ccccc2)CNC1=O)NCCO`, the “activity change, negative = growth inhibition” value is reported as inactive: -10.1%. For `CC1CN(S(=O)(=O)c2ccc(C(=O)Nc3nnc(-c4ccc5c(c4)CCCC5)o3)cc2)CC(C)O1` (centres undefined), the Potency was active: 11.6 µM. In the case of `Cn1c(=O)c2[nH]c(NN=Cc3ccccc3)nc2n(C)c1=O`, the Potency is reported as inconclusive: 18.4 µM [inhibitor, single point]. With `CC(=O)c1ccc(NC(=O)CC2S/C(=N/N=C3CCCCCC3)NC2=O)cc1` (centres undefined) the “activity change, negative = growth inhibition” value was inactive: 5.01%. For `Cc1ccc(N2CC(C(=O)NC3=NCCS3)CC2=O)cc1` (centres undefined), the activity change, negative = growth inhibition was inconclusive: -34.1% [inhibitor]. With `Fc1ccc(-n2ncc3c(NCCCn4ccnc4)ncnc32)cc1` the Potency was inconclusive: 29.1 µM [inhibitor, single point]. For `CC(C)[C@H](NS(=O)(=O)c1ccccc1)C(=O)OCC(=O)NC(=O)NC1CCCCC1`, the Potency was inconclusive: 20.6 µM [inhibitor, single point]. In the case of `COc1cccc(N2C(=O)C(CC(=O)Nc3ccccc3)N(C3CCCCC3)C2=O)c1` (centres undefined), the “activity change, negative = growth inhibition” value is reported as inactive: -24.8%. In the case of `CC1(C)C=Cc2c(c3c(c4c(=O)c(-c5ccc(O)cc5)coc24)OC(C)(C)CC3)O1`, the Potency is reported as active: 25.9 µM. In the case of `COc1ccc(C(=O)N(Cc2cc(OC)c(OC)c(OC)c2)c2ccccn2)cc1`, the Potency is reported as active: 20.6 µM. For `COC(=O)c1oc2ccc(Br)cc2c1NC(C)=O`, the “activity change, negative = growth inhibition” value was inactive: -24.5%. For `O=C(CN1C(=O)S/C(=C\c2ccc(Cl)cc2)C1=O)NCCCn1ccnc1`, the Potency was inconclusive: 9.2 µM [inhibitor, partial curve, poor fit]. For `CCC(C(=O)OCC(=O)C1(O)CCC2C3CCC4=CC(=O)CCC4(C)C3C(O)CC21C)C(C)C` (centres undefined), the Potency was active: 16.4 µM. For `CCN(CC)C(=O)C1CCCN(c2ncnc3c2cnn3-c2cccc(C)c2)C1` (centres undefined), the Potency was active: 16.4 µM. For `Cc1cccc(CC(C)NC(=O)c2oc3c(F)cccc3c2C)n1` (centres undefined), the Potency was active: 10.3 µM. With `Cc1ccc(CCNS(=O)(=O)c2cc3c(cc2C)n(C)c(=O)c(=O)n3C)cc1` the Potency was inconclusive: 9.2 µM [inhibitor, partial curve]. In the case of `CCOC(=O)[C@@H](NC(=O)CC[C@H]1O[C@@H](n2cc(C)c(=O)[nH]c2=O)C[C@@H]1O)C(C)C`, the “activity change, negative = growth inhibition” value is reported as inactive: -3.96%. In the case of `O=C([O-])c1ccccc1-[n+]1c(-c2ccccc2)cc(-c2ccccc2)cc1-c1ccccc1`, the Potency is reported as active: 5.8 µM. In the case of `Cc1onc(-c2c(Cl)cccc2Cl)c1C(=O)OCC(=O)c1ccccc1`, the Potency is reported as inconclusive: 16.4 µM [inhibitor, single point]. For `Cc1ccc(S(=O)(=O)Nc2cc(=O)[nH]c(SCc3ccccc3Cl)n2)cc1`, the Potency was inconclusive: 14.6 µM [inhibitor, partial curve]. For `O=C(COC(=O)/C=C/c1ccc(OC(F)F)cc1)NC1CCCCCCC1`, the “activity change, negative = growth inhibition” value was inactive: -20.3%. In the case of `COc1ccc(NC(=O)Cc2ccc(Cl)cc2)cc1NC(=O)c1ccco1`, the Potency is reported as inconclusive: 29.1 µM [inhibitor, single point]. With `Cc1cc2[nH]c(=O)c(=O)[nH]c2cc1S(=O)(=O)N1CCN(c2cccc(C(F)(F)F)c2)CC1` the Potency was inconclusive: 16.4 µM [inhibitor, partial curve]. With `CCOc1cc(/C=N/NC(=O)CN2CCOCC2)ccc1OCc1ccccc1` the Potency was inconclusive: 23.1 µM [inhibitor, partial curve]. With `CCc1ccc(CN2CCC(Oc3ccc(C(=O)N4CCCC4)cc3)CC2)cc1` the Potency was inconclusive: 23.1 µM [inhibitor, single point]. For `CCc1nc2ccc(C(=O)Nc3cccc(NS(C)(=O)=O)c3)cn2c1N(CCC(C)C)CCN(C)C`, the Potency was active: 18.4 µM. With `COc1ccc(S[C@@H](CCN2CC[C@H](O)CCC2=O)c2ccccc2)cc1` the Potency was inconclusive: 20 µM [inhibitor, single point] and inconclusive: 29.1 µM [inhibitor, single point]. In the case of `CCNC(=S)NN(c1ccccc1)c1ccccc1`, the “activity change, negative = growth inhibition” value is reported as inactive: -7.29%. With `CC(C)(C)n1nnnc1C(c1ccccn1)N(Cc1ccccc1)Cc1ccc(Cl)cc1` (centres undefined) the Potency was inconclusive: 23.1 µM [inhibitor, single point]. In the case of `CC(C)(C)c1cc(CCC(=O)NCCc2ccccn2)cc(C(C)(C)C)c1O`, the Potency is reported as inconclusive: 29.1 µM [inhibitor, single point]. For `COc1cccc(OC)c1OCCN1CCN(C(c2ccccc2)c2ccccc2)CC1`, the Potency was inconclusive: 16.4 µM [inhibitor, single point]. With `CCN1CCN(CCOCCOc2ccccc2)CC1` the Potency was inconclusive: 29.1 µM [inhibitor, single point]. With `Cc1ccc(S(=O)(=O)N2CCN(C(=O)COC(=O)C3(C)CC3(Cl)Cl)CC2)c(C)c1` (centres undefined) the Potency was inconclusive: 16.4 µM [inhibitor, single point]. In the case of `COc1ccc(-c2cn3nc(N4CCCC(C(=O)Nc5cc(C)ccc5C)C4)sc3n2)cc1` (centres undefined), the Potency is reported as active: 16.4 µM. In the case of `Cc1ccc(NC(=O)COc2ccccc2C(=O)Nc2ccccc2)cc1`, the Potency is reported as inconclusive: 28.2 µM [inhibitor, single point]. For `COc1cc(NC(=O)NCC2CCN(Cc3ccccc3Cl)CC2)cc(OC)c1OC`, the Potency was inconclusive: 29.1 µM [inhibitor, single point]. With `CSc1ccccc1NC(=O)Nc1ccc(Cl)cc1` the “activity change, negative = growth inhibition” value was inactive: -29.9%. For `CN(C)c1ccc(/C=C/c2nc3ccccc3s2)cc1`, the Potency was active: 0.1 µM. For `COc1ccc(-c2nc3ccc(Br)cn3c2Cc2cccc(F)c2)cc1OC`, the Potency was inconclusive: 18.4 µM [inhibitor, single point]. With `CCOC(=O)c1c(-c2ccccc2)oc2cc(Br)c(O)cc12` the “activity change, negative = growth inhibition” value was inactive: -13.2%. In the case of `Cc1cccc(-n2cc(-c3ccccc3)c3c(N4CCC(C)CC4)ncnc32)c1`, the Potency is reported as inconclusive: 25.9 µM [inhibitor, single point]. For `CCCCN(CC)CCNC(=O)CCn1cnc2onc(-c3ccc(F)cc3)c2c1=O`, the Potency was active: 23.1 µM.
